# Results from publication PMC11245519, “Ubiquitous purine sensor modulates diverse signal transduction pathways in bacteria” (Nature Communications, 2024).
# What was measured:
# Assay in all cases: biochemical
# Format in all cases: binding
# [1] = molecular target: McpH-LBD R129A (Pseudomonas putida, UniProt Q88R14, R129A); details: ITC, 25 °C, pH 6.0, ligand adenine (2 mM)
# [2] = molecular target: McpH-LBD Y121A (Pseudomonas putida, UniProt Q88R14, Y121A); details: ITC, 25 °C, pH 6.0, ligand adenine (2 mM)
# Sequence of McpH-LBD Y121A (Q88R14 51-276 Y121A): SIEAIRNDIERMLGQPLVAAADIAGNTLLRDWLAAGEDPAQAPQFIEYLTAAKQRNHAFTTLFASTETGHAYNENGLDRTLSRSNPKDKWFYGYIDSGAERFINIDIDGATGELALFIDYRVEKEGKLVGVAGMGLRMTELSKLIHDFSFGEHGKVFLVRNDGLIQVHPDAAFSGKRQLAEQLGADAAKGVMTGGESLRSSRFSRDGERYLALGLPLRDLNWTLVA
# [3] = molecular target: McpH-LBD (Pseudomonas putida, UniProt Q88R14)
# Sequence of McpH-LBD (Q88R14 51-276): as the sequence (Q88R14 51-276 Y121A) above, with A71Y counted along it
# [4] = molecular target: McpH-LBD F167A (Pseudomonas putida, UniProt Q88R14, F167A); details: ITC, 25 °C, pH 6.0, ligand adenine (2 mM)
# Sequence of McpH-LBD F167A (Q88R14 51-276 F167A): as the sequence (Q88R14 51-276 Y121A) above, with A71Y, F117A counted along it
# [5] = molecular target: McpH-LBD W140A (Pseudomonas putida, UniProt Q88R14, W140A); details: ITC, 25 °C, pH 6.0, ligand adenine (2 mM)
# Sequence of McpH-LBD W140A (Q88R14 51-276 W140A): as the sequence (Q88R14 51-276 Y121A) above, with A71Y, W90A counted along it
# Sequence of McpH-LBD R129A (Q88R14 51-276 R129A): as the sequence (Q88R14 51-276 Y121A) above, with A71Y, R79A counted along it
compound,measurement,setting,value
Nc1ncnc2[nH]cnc12 [Adenine],Kd,[1],42 ± 2 µM
same,Kd,[2],151 ± 7 µM
same,Kd,[3],2.6 ± 0.4 µM
same,Kd,[4],121 ± 30 µM
same,Kd,[5],169 ± 66 µM
